The other results are listed elsewhere or left out. Many values rest on one well or one pass, so single values are uncertain.
Columns and labels:
Assay in all cases: cell count relative to DMSO control; melanoma cells; higher = more viable cells
Conditions in all cases: library dose: standard library concentration; 72 h
[1] = test system: G361
[2] = test system: IPC-298
[3] = test system: IST-MEL1
[4] = test system: LB2518-MEL
[5] = test system: LOXIMVI
[6] = test system: MEL-HO
[7] = test system: MZ2-MEL
[8] = test system: MeWo
[9] = test system: RPMI7951
[10] = test system: RVH-421
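Note: cells treated in 1,536-well plates, then fixed and DAPI-stained, with nuclei counted from automated high-throughput microscope images.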

SMILES	cell count [1] [%]	cell count [2] [%]	cell count [3] [%]	cell count [4] [%]	cell count [5] [%]	cell count [6] [%]	cell count [7] [%]	cell count [8] [%]	cell count [9] [%]	cell count [10] [%]
COc1ccc(C2=N[C@@H](c3ccc(Cl)cc3)[C@@H](c3ccc(Cl)cc3)N2C(=O)N2CCNC(=O)C2)c(OC(C)C)c1 [Nutlin-3] + CO[C@@H]1[C@H](N(C)C(=O)c2ccccc2)C[C@H]2O[C@]1(C)n1c3ccccc3c3c4c(c5c6ccccc6n2c5c31)C(=O)NC4 [Midostaurin] (first compound 0.5 µM, partner dose 0.4 µM)	40.9	64.3	97	51.9	49.4	67	78.5	74.4	36.6	61.1
CC(C)C[C@H](NC(=O)[C@H](Cc1ccccc1)NC(=O)c1cnccn1)B(O)O [Bortezomib] + C=C(c1ccc(C(=O)O)cc1)c1cc2c(cc1C)C(C)(C)CCC2(C)C [Bexarotene] (first compound 0.005 µM, partner dose 10 µM)	1.75	6.54	6.15	0.592	15.8	27.5	4.26	14.7	7.23	4.79
Cn1c(=O)n(-c2ccc(C(C)(C)C#N)cc2)c2c3cc(-c4cnc5ccccc5c4)ccc3ncc21 + CC(=O)c1c(C)c2cnc(Nc3ccc(N4CCNCC4)cn3)nc2n(C2CCCC2)c1=O [palbociclib] (first compound 0.02 µM, partner dose 0.2 µM)	38.4	64.9	55.3	76.8	57.1	75.4	67.8	46.9	59.1	56.7
Cn1c(=O)n(-c2ccc(C(C)(C)C#N)cc2)c2c3cc(-c4cnc5ccccc5c4)ccc3ncc21 + O=C1NC(=O)/C(=C/c2ccc(-c3ccc(F)cc3O)o2)S1 [AS252424] (first compound 0.02 µM, partner dose 5 µM)	68.6	75.8	79.3	84.5	91.8	56.7	95.9	71.3	85.9	79.9
Cc1cn(-c2cc(NC(=O)c3ccc(C)c(Nc4nccc(-c5cccnc5)n4)c3)cc(C(F)(F)F)c2)cn1 [nilotinib] + C[C@]1(c2nc3c(C(N)=O)cccc3[nH]2)CCCN1 [Veliparib] (first compound 1 µM, partner dose 7 µM)	80.8	100	95.6	73.1	97.6	97.1	86.8	85.4	83.2	79.5
Cn1c(=O)n(-c2ccc(C(C)(C)C#N)cc2)c2c3cc(-c4cnc5ccccc5c4)ccc3ncc21 + CS(=O)(=O)CCNCc1ccc(-c2ccc3ncnc(Nc4ccc(OCc5cccc(F)c5)c(Cl)c4)c3c2)o1 [lapatinib] (first compound 0.02 µM, partner dose 4 µM)	50	81.2	75.3	77.2	56.9	64.1	55.2	58.6	63.5	73.2
Cc1cn(-c2cc(NC(=O)c3ccc(C)c(Nc4nccc(-c5cccnc5)n4)c3)cc(C(F)(F)F)c2)cn1 [nilotinib] + Oc1nc(-c2ccc(C(F)(F)F)cc2)nc2c1CSCC2 [XAV939] (first compound 1 µM, partner dose 10 µM)	94.7	96.6	89.5	77.1	130	82	87	83	95.7	81
COc1ccc(C2=N[C@@H](c3ccc(Cl)cc3)[C@@H](c3ccc(Cl)cc3)N2C(=O)N2CCNC(=O)C2)c(OC(C)C)c1 [Nutlin-3] + CN(NC(=O)CC(=O)NN(C)C(=S)c1ccccc1)C(=S)c1ccccc1 [STA4783] (first compound 0.5 µM, partner dose 0.03 µM)	32.5	65.6	33.4	16.3	45.6	80.2	96.9	24.5	63.5	49.3
Cc1cn(-c2cc(NC(=O)c3ccc(C)c(Nc4nccc(-c5cccnc5)n4)c3)cc(C(F)(F)F)c2)cn1 [nilotinib] + COc1cc2ncnc(Nc3ccc(Oc4ccccc4)cc3)c2cc1OC [SrcI1] (first compound 1 µM, partner dose 10 µM)	49.3	78.4	76.2	104	83.3	86.4	60.4	71.9	33.9	88.9
Cc1cc(Nc2cc(N3CCN(C)CC3)nc(/C=C/c3ccccc3)n2)n[nH]1 + O=C(O)c1ccc(-c2c[nH]c3ncc(-c4ccccc4)cc23)cc1C1CCCC1 [GSK650394] (first compound 0.2 µM, partner dose 0.8 µM)	64.8	92.9	70.2	77.8	99.2	71.7	93.4	69.6	66.7	89.3
Cc1cc(Nc2cc(N3CCN(C)CC3)nc(/C=C/c3ccccc3)n2)n[nH]1 + CN1CCN(c2ccc3nc(-c4c(N)c5c(F)cccc5[nH]c4=O)[nH]c3c2)CC1 [Dovitinib] (first compound 0.2 µM, partner dose 0.5 µM)	75.4	48.3	84.1	54.2	74.4	72.4	37.3	45.9	77	99.7

From the supplement of paper PMC4604168 (melanoma cell lines)
